In publication PMC4336329 (PLoS ONE, 2015):
In all, about 310,000 compounds went through this assay and about 14,000 (4.5%) showed an effect of 50% or more. The effect is printed as a negative number. Some of the results follow.
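Note: peak tail current of the secondary pulse compared with the same well before compound.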

What follows are compounds tested against human ether-à-go-go-related gene (hERG) potassium channel (human, UniProt Q12809) (assay: primary screen, population patch clamp on CHO cells stably expressing hERG).
Sequence of human ether-à-go-go-related gene (hERG) potassium channel (Q12809 whole entry, looked up): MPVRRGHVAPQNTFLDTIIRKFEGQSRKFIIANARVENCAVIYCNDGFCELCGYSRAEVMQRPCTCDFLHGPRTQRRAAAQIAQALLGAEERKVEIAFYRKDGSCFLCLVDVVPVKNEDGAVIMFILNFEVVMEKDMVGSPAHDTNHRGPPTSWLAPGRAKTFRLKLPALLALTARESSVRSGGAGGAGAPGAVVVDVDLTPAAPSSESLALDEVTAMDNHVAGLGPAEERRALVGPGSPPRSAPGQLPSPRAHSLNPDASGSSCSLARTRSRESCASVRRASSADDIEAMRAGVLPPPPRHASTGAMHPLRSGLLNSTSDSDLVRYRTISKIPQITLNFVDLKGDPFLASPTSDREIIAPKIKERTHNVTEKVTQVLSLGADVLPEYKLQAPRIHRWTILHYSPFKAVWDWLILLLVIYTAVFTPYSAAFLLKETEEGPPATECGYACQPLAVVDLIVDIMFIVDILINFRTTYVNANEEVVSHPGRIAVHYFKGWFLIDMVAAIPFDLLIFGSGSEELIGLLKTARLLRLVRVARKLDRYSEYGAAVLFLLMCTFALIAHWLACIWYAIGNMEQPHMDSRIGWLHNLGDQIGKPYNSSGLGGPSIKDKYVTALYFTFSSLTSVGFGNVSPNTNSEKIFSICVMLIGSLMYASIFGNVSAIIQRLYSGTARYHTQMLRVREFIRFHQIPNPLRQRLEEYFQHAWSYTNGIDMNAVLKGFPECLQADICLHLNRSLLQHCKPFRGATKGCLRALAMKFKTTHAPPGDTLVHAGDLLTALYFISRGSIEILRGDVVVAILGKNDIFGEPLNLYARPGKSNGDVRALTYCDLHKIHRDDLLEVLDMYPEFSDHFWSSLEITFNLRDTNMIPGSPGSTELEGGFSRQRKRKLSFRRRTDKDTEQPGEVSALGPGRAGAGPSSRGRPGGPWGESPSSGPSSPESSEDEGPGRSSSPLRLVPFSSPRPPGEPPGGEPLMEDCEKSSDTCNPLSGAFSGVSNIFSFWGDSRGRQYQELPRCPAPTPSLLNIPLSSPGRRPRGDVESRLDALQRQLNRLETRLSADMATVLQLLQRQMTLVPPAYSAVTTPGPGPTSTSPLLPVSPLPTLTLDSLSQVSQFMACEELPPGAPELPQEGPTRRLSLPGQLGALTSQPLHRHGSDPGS
For `Cc1ccccc1CCN(CC(=O)NCc1ccc(F)cc1)C(=O)c1csnn1`, the “hERG current change (%, negative = inhibition) at 10uM” value was -14.1%.
`O=C(NCCN1CCOCC1)C1CCN(c2ncnc3c2sc2cccc(F)c23)CC1` was tested, and the “hERG current change (%, negative = inhibition) at 10uM” value was -25.6%.
In the case of `Nc1ccncc1Cl`, the “hERG current change (%, negative = inhibition) at 10uM” value is reported as 4.66%.
For `O=P(CO)(Cc1ccccc1)Cc1ccccc1`, the “hERG current change (%, negative = inhibition) at 10uM” value was 5.29%.
`Cc1ccc(C)c(NC(=O)C2Cc3ccccc3CN2C(=O)OCc2ccccc2)c1` (centres unmarked) was tested, and the “hERG current change (%, negative = inhibition) at 10uM” value was -2.01%.
`Cc1ccc(NC(=O)C2CCCN(C(=O)Nc3ccc(F)cc3)C2)cc1` (centres unmarked) was tested, and the “hERG current change (%, negative = inhibition) at 10uM” value was 0.441%.
With `CC1=CC(c2ccccc2)n2nc(NC(=O)CCC(=O)O)nc2N1` (centres unmarked) the “hERG current change (%, negative = inhibition) at 10uM” value was 9.52%.
For `O=C(CSc1nnc(-c2ccc(Br)cc2)o1)Nc1cccc(C(=O)O)c1`, the “hERG current change (%, negative = inhibition) at 10uM” value was 6.73%.
`CC(=O)Nc1ccc(S(=O)(=O)N2CCN(c3ccc(C)c(Cl)c3)CC2)cc1` was tested, and the “hERG current change (%, negative = inhibition) at 10uM” value was 5.31%.
`CCN(CC(=O)Nc1c(F)cccc1F)C(=O)c1ccc(N2C(=O)c3ccccc3C2=O)cc1` was tested, and the “hERG current change (%, negative = inhibition) at 10uM” value was 1.38%.
`Cc1nc(NC(=O)CSc2nnc(C3CC3)n2C)sc1C` was tested, and the “hERG current change (%, negative = inhibition) at 10uM” value was 11.8%.
For `CC(=O)Oc1ccc2c(C)c(CC(C)O)c(=O)oc2c1` (centres unmarked), the “hERG current change (%, negative = inhibition) at 10uM” value was 6.98%.
For `CCOC1(c2ccccc2)CC1C(=O)N/N=C/c1cccc([N+](=O)[O-])c1` (centres unmarked), the “hERG current change (%, negative = inhibition) at 10uM” value was 0.132%.
With `COc1ccc2c(c1)C(=O)OC2CC(=O)O` (centres unmarked) the “hERG current change (%, negative = inhibition) at 10uM” value was 2.55%.
`O=C(Cn1[nH]c(=O)c2ccccc2c1=O)N1CC=C(c2ccccc2)CC1` was tested, and the “hERG current change (%, negative = inhibition) at 10uM” value was -4.76%.
In the case of `CC(C)c1ccc(NC(=O)CN2C(=O)NC(C)(C3CC3)C2=O)cc1` (centres unmarked), the “hERG current change (%, negative = inhibition) at 10uM” value is reported as -0.0473%.
In the case of `COc1ccc2[nH]c(C(=O)Nc3cccc(C)n3)cc2c1`, the “hERG current change (%, negative = inhibition) at 10uM” value is reported as 14.9%.
`COc1ccc(C(O)c2coc3ccc(O)c(CN(C)C)c23)cc1` (centres unmarked) was tested, and the “hERG current change (%, negative = inhibition) at 10uM” value was -47.9%.
`CC[N+]1=C(C)C(C)(C)c2cc(C)ccc21.[I-]` was tested, and the “hERG current change (%, negative = inhibition) at 10uM” value was -5.19%.
With `Cc1c(C(=O)OCc2ccccc2)[nH]c2c1C(=O)CC(c1ccco1)C2` (centres unmarked) the “hERG current change (%, negative = inhibition) at 10uM” value was 3.85%.
For `FC(F)(F)c1nc2ccccc2n1CCNc1nc(CN2CCCCC2)cs1`, the “hERG current change (%, negative = inhibition) at 10uM” value was 14.1%.
In the case of `CC1N(C(=O)N2CCOCC2)CCN1S(=O)(=O)c1ccc(Cl)cc1` (centres unmarked), the “hERG current change (%, negative = inhibition) at 10uM” value is reported as 7.92%.
`CCOc1ccc(-n2cc(C(=O)NC(C)C)c3cc(OC)c(OC)cc3c2=O)cc1` was tested, and the “hERG current change (%, negative = inhibition) at 10uM” value was -3.27%.
In the case of `Cc1noc(C)c1C(=O)Nc1ccc(F)cc1F`, the “hERG current change (%, negative = inhibition) at 10uM” value is reported as -1.56%.
For `COc1ccccc1C1/C(=C(/O)c2ccccc2)C(=O)C(=O)N1CC(C)C` (centres unmarked), the “hERG current change (%, negative = inhibition) at 10uM” value was 6.81%.
In the case of `COCc1cc(=O)[nH]c(/N=C(\N)Nc2ccc(Cl)c(Cl)c2)n1`, the “hERG current change (%, negative = inhibition) at 10uM” value is reported as 17.4%.
For `Cc1cc(C)n2nc(CNS(=O)(=O)c3c(F)c(F)c(F)c(F)c3F)nc2n1`, the “hERG current change (%, negative = inhibition) at 10uM” value was -45%.
In the case of `Cl.O=C1CC(=C(c2ccccc2)c2ccccc2)C(=O)N1CCCCN1CCN(c2cccc(Cl)c2)CC1`, the “hERG current change (%, negative = inhibition) at 10uM” value is reported as -46%.
`CCOC(=O)CSc1nc2cc3c(cc2cc1CC)OCCO3` was tested, and the “hERG current change (%, negative = inhibition) at 10uM” value was 2.39%.
With `Cc1nn2c(-c3ccco3)nnc2c2ccccc12` the “hERG current change (%, negative = inhibition) at 10uM” value was -27.1%.
In the case of `CC(=O)c1cccc(CN2CCN(CCc3ccccc3)C(CCO)C2)c1` (centres unmarked), the “hERG current change (%, negative = inhibition) at 10uM” value is reported as -53.3%.
`CC1CCC(NS(=O)(=O)c2cccc3nsnc23)CC1` (centres unmarked) was tested, and the “hERG current change (%, negative = inhibition) at 10uM” value was -2.16%.
For `C=CCNC(=O)COC(=O)C1CCN(S(=O)(=O)c2ccc3c(c2)OCCO3)CC1`, the “hERG current change (%, negative = inhibition) at 10uM” value was -2.38%.
With `O=c1[nH]c2ccccc2nc1-c1ccccc1` the “hERG current change (%, negative = inhibition) at 10uM” value was 8.4%.
`Cc1nnc(SCC(=O)NC(=O)Nc2ccc3c(c2)OCCO3)n1N` was tested, and the “hERG current change (%, negative = inhibition) at 10uM” value was 0.21%.
With `Cc1cc(C)c(S(=O)(=O)N2CCN(c3ccc([N+](=O)[O-])c(-n4nc(C)cc4C)c3)CC2)c(C)c1` the “hERG current change (%, negative = inhibition) at 10uM” value was -7.91%.
`CC(CC(=O)Nc1ncc([N+](=O)[O-])s1)c1ccccc1` (centres unmarked) was tested, and the “hERG current change (%, negative = inhibition) at 10uM” value was 0.741%.
`CC(=O)c1ccc(N2CCN(C(=O)c3ccc(NC(=O)C4CCCO4)cc3)CC2)cc1` (centres unmarked) was tested, and the “hERG current change (%, negative = inhibition) at 10uM” value was -6.34%.
With `COc1ccc(C)cc1N(C(=O)c1cccc(F)c1)c1nc2ccccc2s1` the “hERG current change (%, negative = inhibition) at 10uM” value was -8%.
With `CCOC(=O)C1=C(C)NC(=O)CC1c1ccccc1` (centres unmarked) the “hERG current change (%, negative = inhibition) at 10uM” value was -0.777%.
In the case of `COc1ccc(-c2cc(C(=O)NN)n(-c3ccccc3)n2)cc1`, the “hERG current change (%, negative = inhibition) at 10uM” value is reported as -22.3%.
With `CC(C)CNC(=S)N(CCN(C)C)Cc1cc2cc3c(cc2[nH]c1=O)OCCO3` the “hERG current change (%, negative = inhibition) at 10uM” value was 10.6%.
For `Cc1nccn1CCc1n[nH]c(=S)n1Cc1ccccc1`, the “hERG current change (%, negative = inhibition) at 10uM” value was -23.9%.
For `OCCNc1nc2ccccc2n1-c1ccccc1`, the “hERG current change (%, negative = inhibition) at 10uM” value was 5.75%.
